Drawing on patent US20250018038A1 (UNIVERSITY OF CHICAGO, published 2025), this text covers binding for 4 molecules.

Chains of the proteins cited; added tags and fusions are not shown. Residues count along the entry.
UniProt O15392, residues 1-140: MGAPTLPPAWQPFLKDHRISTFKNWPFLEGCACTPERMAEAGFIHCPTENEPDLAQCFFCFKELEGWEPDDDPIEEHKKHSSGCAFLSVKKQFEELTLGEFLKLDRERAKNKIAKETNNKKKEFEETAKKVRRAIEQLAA

For assay [1], the target named is T1, Bor-N (Biotinylated Avi tag, held on neutravidin; not in the letters).
T1 construct: also called Bor N: 20-88; Borealin N-terminal domain; not shown: Avi tag, and any purification tag or linker
T1 chain: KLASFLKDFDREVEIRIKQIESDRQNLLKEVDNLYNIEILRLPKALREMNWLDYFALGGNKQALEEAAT
Put plainly: single point protein ELISA: 50 nM Avi-tagged target on neutravidin plate, 200 nM Fab, protein L-HRP.

Assay [2] deals with T2, Bor-C (Biotinylated Avi tag, held on neutravidin; not in the letters).
T2 construct: also called Bor C: 207-280; Borealin C-terminal domain; not shown: Avi tag, and any purification tag or linker
T2 chain: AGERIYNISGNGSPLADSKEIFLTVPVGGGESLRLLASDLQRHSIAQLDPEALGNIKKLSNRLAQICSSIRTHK
The assay is described as above.

The target in assay [3] is Survivin (purified recombinant Survivin protein) (human) (UniProt O15392). Described as above.
Substrate in assay [4]: T3, INC-N
T3 sequence (chain, by the resolver, Biotinylated Avi tag, held on neutravidin; not in the letters): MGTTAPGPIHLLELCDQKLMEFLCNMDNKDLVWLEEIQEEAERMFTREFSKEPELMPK
The description is as above.

Assay [5] concerns the target Survivin (purified recombinant Survivin protein) (human) (UniProt O15392). The assay is described as follows: western blot of recombinant Survivin probed with the Fab.
Assay [6] shares this target. The assay is described as follows: western blot after SDS-PAGE, SUR-N-45 Fab as primary reagent, anti-human F(ab')2 IgG-HRP.
Assay [7] shares this target. Put plainly: single point protein ELISA, hSUR + FAB against FAB only.
The target in assay [8] is T1, Bor-N. The assay is described as follows: single point protein ELISA, 50 nM immobilised target. As for the experimental part:
(§1) To rapidly reconfirm the binding and specificity of the obtained Fabs after reformatting into the expression vectors single-point Fab ELISA was performed (FIG. 2-3). Briefly, 50 nM Avi-tagged targets were immobilized on the prepared NAV-coated and blocked with 0.5% BSA in PBS 96-well ELISA plates. The target coated plates were washed with appropriate buffer (TBST or PBST) and were incubated with 200 nM Fab for 20 minutes and then washed. The washed plates were incubated with protein L conjugated with HRP (1:5000 diluted in TBST) for 30 minutes. Plates were washed and the reaction was developed using the TMB chromogenic substrate (Thermofisher) and subsequently quenched with 1M HCl. Absorbance was read at 450 nm on Epoch plate reader.

Assay [9] addresses T2, Bor-C. Described as above. As for the experimental part:
as §1

Substrate in assay [10]: T3, 
The assay is described as above.

No constants are given. Whether binding was seen depends on the method and setting. Some results given as binding are weak or reduced against the parent protein; the word gives no strength.

B1: SUR-FL-27 (Fab, V domains shown)
VH: EVQLVESGGGLVQPGGSLRLSCAASGFNVYSSYIHWVRQAPGKGLEWVASIYPSSGYTYYADSVKGRFTISADTSKNTAYLQMNSLRAEDTAVYYCARMSYYSWYYHSVYMYGLDYWGQGTLVTVSS
VL: DIQMTQSPSSLSASVGDRVTITCRASQSVSSAVAWYQQKPGKAPKLLIYSASSLYSGVPSRFSGSRSGTDFTLTISSLQPEDFATYYCQQASSDHSLITFGQGTKVEIKR
notes: also called SUR-FL-27 Fab
For B1, the binding result (with Bor-N [1]; in the assay with Bor-C [2]; in assay [3]; in [4]) was “binds” throughout.

B2: SUR-N-45 Fab (Fab, V domains shown)
VH: EVQLVESGGGLVQPGGSLRLSCAASGFNLSSSSIHWVRQAPGKGLEWVASISSYSGYTYYADSVKGRFTISADTSKNTAYLQMNSLRAEDTAVYYCARPHWNSSYFSGWAMDYWGQGTLVTVSS
VL: DIQMTQSPSSLSASVGDRVTITCRASQSVSSAVAWYQQKPGKAPKLLIYSASSLYSGVPSRFSGSRSGTDFTLTISSLQPEDFATYYCQQWSSKSPITFGQGTKVEIKR
In the case of B2, the binding entry in assay [5], in [6] and in assay [3] was “binds” each time.

B3: SUR-N-40 Fab (Fab, V domains shown)
VH: EVQLVESGGGLVQPGGSLRLSCAASGFNFSSSSIHWVRQAPGKGLEWVAYIYPSYGYTSYADSVKGRFTISADTSKNTAYLQMNSLRAEDTAVYYCARSLYSKMWYYGSYYFYQVGLDYWGQGTLVTVSS
VL: DIQMTQSPSSLSASVGDRVTITCRASQSVSSAVAWYQQKPGKAPKLLIYSASSLYSGVPSRFSGSRSGTDFTLTISSLQPEDFATYYCQQGYKYLVTFGQGTKVEIKR
As to B3, the binding result in [7] is on record as “binds”; with Bor-N [8] it was “no binding (tested: 200 nM)”; in [3] it was “binds”.

B4: SUR-FL-26 (Fab, V domains shown)
VH: EVQLVESGGGLVQPGGSLRLSCAASGFNVSYSSIHWVRQAPGKGLEWVASISPYYGYTYYADSVKGRFTISADTSKNTAYLQMNSLRAEDTAVYYCARWYFEYPYYMWGLDYWGQGTLVTVSS
VL: DIQMTQSPSSLSASVGDRVTITCRASQSVSSAVAWYQQKPGKAPKLLIYSASSLYSGVPSRFSGSRSGTDFTLTISSLQPEDFATYYCQQSYKPPITFGQGTKVEIKR
notes: also called SUR-FL-26 Fab
Regarding B4, the binding result in the assay with Bor-N [8] was “no binding (tested: 200 nM)”; with Bor-C [9] it was “no binding (tested: 200 nM)”; in assay [10], “no binding (tested: 200 nM)”; in assay [3], “binds”.
